Measurements published in PubChem BioAssay AID504339 (National Center for Advancing Translational Sciences (NCATS), 2011).
The campaign covered roughly 390,000 compounds. About 17,000 (4.4%) were called active. Inconclusive means that the source gave no clear call. Such entries were picked first, then a sample of the others. Calls come from the whole dose curve; as a rule, active = well fitted inhibition curve with a large enough effect; inconclusive = small, poorly fitted or top-dose-only effect; inactive = no such curve, though single readings can be large or run the other way. A potency beside an inconclusive call is a rough fit, not a confirmed value.

These molecules were tested against Lysine-specific demethylase 4A (Homo sapiens) (UniProt O75164) (assay: qHTS Assay for Inhibitors of JMJD2A-Tudor Domain). Details: AlphaScreen JMJD2A-Tudor / H3K4me3 peptide binding; activity change, negative = inhibition: at 114 µM (top of the series).
% is set by controls: 0 for no effect and ±100 for the full control effect; potency is the fitted concentration of half-maximal effect; tags give direction and shape of the fitted curve.
Note: nearly all actives have a fitted effect of over 50% in size.

UniProt O75164, sequence (O75164 whole entry, looked up, the tested form may be a part): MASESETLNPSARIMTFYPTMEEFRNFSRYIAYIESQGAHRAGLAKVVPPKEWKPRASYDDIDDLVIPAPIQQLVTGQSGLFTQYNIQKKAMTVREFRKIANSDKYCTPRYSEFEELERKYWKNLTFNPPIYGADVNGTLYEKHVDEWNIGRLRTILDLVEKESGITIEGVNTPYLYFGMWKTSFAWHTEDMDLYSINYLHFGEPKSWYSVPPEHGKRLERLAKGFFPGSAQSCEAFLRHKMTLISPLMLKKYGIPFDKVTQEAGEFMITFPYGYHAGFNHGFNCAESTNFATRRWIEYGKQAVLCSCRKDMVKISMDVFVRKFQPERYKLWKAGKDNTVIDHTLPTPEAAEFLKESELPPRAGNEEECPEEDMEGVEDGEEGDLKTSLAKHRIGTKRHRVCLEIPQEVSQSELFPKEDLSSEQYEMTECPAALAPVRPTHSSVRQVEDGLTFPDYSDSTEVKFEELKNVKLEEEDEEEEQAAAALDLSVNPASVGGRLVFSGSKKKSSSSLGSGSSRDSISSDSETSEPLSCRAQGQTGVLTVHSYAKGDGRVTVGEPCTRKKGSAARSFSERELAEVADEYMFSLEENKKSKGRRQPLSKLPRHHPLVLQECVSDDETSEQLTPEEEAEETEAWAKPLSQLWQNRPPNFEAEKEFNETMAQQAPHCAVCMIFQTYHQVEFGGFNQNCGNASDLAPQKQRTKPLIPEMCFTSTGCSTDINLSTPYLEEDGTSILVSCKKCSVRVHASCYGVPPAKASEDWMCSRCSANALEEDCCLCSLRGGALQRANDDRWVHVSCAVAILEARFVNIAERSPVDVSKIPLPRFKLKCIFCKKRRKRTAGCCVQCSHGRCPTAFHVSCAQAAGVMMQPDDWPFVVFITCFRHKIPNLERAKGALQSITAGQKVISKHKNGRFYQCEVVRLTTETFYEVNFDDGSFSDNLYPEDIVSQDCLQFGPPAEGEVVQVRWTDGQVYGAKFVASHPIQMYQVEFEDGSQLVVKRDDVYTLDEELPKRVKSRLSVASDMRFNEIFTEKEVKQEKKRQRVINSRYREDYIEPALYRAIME

Potency, active:
C/C(N)=C(/C#N)C(=O)CSc1nnc(Nc2c(C)cccc2C)s1 56.2 µM
CCOc1ccc(CN(CCc2ccc3c(c2)OCO3)Cc2cc(OC)c(OC)cc2OC)cc1 8.91 µM
N#CC1=C2SCN(C3CCCCC3)CN2C(=O)CC1c1ccc(Cl)cc1 (centres undefined) 15.8 µM

Potency, inconclusive:
O=C(O)C(=O)/C(=C\c1cccc(Cl)c1)c1ccc2ccccc2n1 39.8 µM [inhibitor, single point]
CC1CCN(C(=S)c2ccccc2O)CC1 100 µM [inhibitor, partial curve, poor fit]
CCc1ccc(Nc2oc(C)cc(=O)c2C(C)=O)cc1 89.1 µM [inhibitor, single point]
CCN1C(=O)[C@@H]2[C@@H](c3ccc(-c4ccc5c(c4)OCO5)c(OC)c3)N3CCC[C@@]3(C(=O)OC)[C@@H]2C1=O 63.1 µM [inhibitor, partial curve]
CCn1c(COc2ccccc2C)nnc1SCC(=O)CC(=O)Nc1ccccc1OC 63.1 µM [inhibitor, partial curve]
N#Cc1nc(-c2ccc(COc3ccccc3)o2)oc1N1CCCCC1 8.91 µM [inhibitor, full curve]
O=C(/C(=C/c1ccc(Cl)cc1)c1nc2ccccc2[nH]1)c1cccs1 22.4 µM [inhibitor, full curve, poor fit]
CCN(CC)S(=O)(=O)c1ccc(N2CCOCC2)c(NC(=S)NC(=O)c2ccco2)c1 79.4 µM [inhibitor, partial curve]
Cc1cc(C)n2[nH]c(=O)c(N=Nc3ccc(S(N)(=O)=O)cc3)c2n1 0.631 µM [inhibitor, partial curve, poor fit]
CCCSC(=S)c1c(C)[nH]n(-c2ccccc2)c1=O 50.1 µM [inhibitor, partial curve]
COc1ccc(NC(=S)NNc2ccc(S(=O)(=O)Nc3ccccc3C(=O)O)cc2[N+](=O)[O-])cc1 8.91 µM [inhibitor, partial curve]

Activity change, negative = inhibition, inactive:
S=C(NCCCc1ccccc1)Nc1ccccc1 -6.85%
O=C(CC(C(=O)O)c1ccc(Cl)cc1)c1ccccc1 (centres undefined) -9.72%
CCOC(=O)c1c(NC(=O)C2C3CCC(O3)C2C(=O)O)sc2c1CCC(CC)C2 (centres undefined) -25.9%
O=C(CCCCCNc1nc(=S)[nH]c2ccccc12)NCCc1ccc(Cl)cc1 -13.4%
COc1cc2c(cc1OC)CN(CC(=O)Nc1ccc(C)c(S(=O)(=O)N3CCOCC3)c1)CC2 -11.1%
